# Assay results from ChEMBL document CHEMBL5606458, “ASAP - ZIKV NS2B-NS3 protease fluorescence single point” (2024).
# Hit rate of the full screen: of about 2,700 compounds, about 160 (5.9%) showed an effect of 50% or more. This is one part of the list.
# Target: Nonstructural protein 3 (Zika virus) (UniProt A0A024AXB9)
# [1] = PRVABC59, Concentration 15.0 uM, Number of replicates 1.0
# [2] = PRVABC59, Concentration 50.0 uM, Number of replicates 1.0
# [3] = PRVABC59, Concentration 10.0 uM, Number of replicates 1.0
# Sequence of UniProt A0A024AXB9 (A0A024AXB9 as listed by the source): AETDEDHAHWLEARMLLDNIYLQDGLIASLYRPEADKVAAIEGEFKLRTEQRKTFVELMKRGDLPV
smiles,measurement,setting,value
O=C(Nc1ccc(OC(F)F)cc1)c1cc(Cl)ccc1NS(=O)(=O)c1ccc(Oc2ccccc2Cl)cc1,inhibition,[1],57.7%
O=Cc1ccc(N2CCC(C(=O)NC[C@H]3CCCN(C4CCCC4)C3)CC2)cc1,inhibition,[2],25.1%
Cc1cccc(N2CCN(C(=O)C3CCN(c4ccc(C=O)cc4)CC3)C[C@@H]2C)c1,inhibition,[2],23.3%
Cc1cc(CO)c2cccc(CC(=O)NCc3ccc(S(N)(=O)=O)cc3)c2n1,inhibition,"PRVABC59, Concentration 99.9 uM, Number of replicates 2.0, Standard deviation 1.3436712019086534 %",-9.02%
O=Cc1ccc(N2CCC(C(=O)NCc3cc(F)ccc3Br)CC2)cc1,inhibition,[3],4.33%
CC(=O)N[C@@H](CCCN)C(=O)Nc1cccc(Cc2cccc3c(CO)cc(C)nc23)c1,inhibition,"PRVABC59, Concentration 49.95 uM, Number of replicates 2.0, Standard deviation 1.358939825012392 %",1.03%
same,inhibition,"PRVABC59, Concentration 99.9 uM, Number of replicates 2.0, Standard deviation 0.3511877722800543 %",17.3%
O=C(c1ccccc1Cl)N1CCN(C(=O)c2cc(Cl)ccc2NS(=O)(=O)c2ccc(Oc3ccccc3Cl)cc2)CC1,inhibition,[1],15.8%
Cc1cc(NC(=O)c2cc(Cl)ccc2NS(=O)(=O)c2ccc(Oc3ccccc3Cl)cc2)cc(C)c1Br,inhibition,[1],27.6%
O=C(c1nc2ccccc2[nH]1)N1CCC[C@H](n2cnc3ccccc32)C1,inhibition,"PRVABC59, Concentration 49.5 uM, Number of replicates 2.0, Standard deviation 2.107131691302147 %",3.97%
same,inhibition,"PRVABC59, Concentration 99.01 uM, Number of replicates 2.0, Standard deviation 2.096878290290114 %",3.14%
same,inhibition,"PRVABC59, Concentration 198.0 uM, Number of replicates 2.0, Standard deviation 0.3640057247302785 %",0.803%
Cc1ccc2ccccc2c1NC(=O)C1CCN(c2ccc(C=O)cc2)CC1,inhibition,[2],19.8%
Cc1cc(CO)c2cccc(Cc3cccc(C(=O)Nc4cc(C)on4)c3)c2n1,inhibition,"PRVABC59, Concentration 49.95 uM, Number of replicates 2.0, Standard deviation 0.5505632705734445 %",18.4%
same,inhibition,"PRVABC59, Concentration 99.9 uM, Number of replicates 2.0, Standard deviation 1.053935557806211 %",51.2%
O=C(NCc1cnn2c1CNCC2)c1cccc2ncccc12,inhibition,"PRVABC59, Concentration 49.5 uM, Number of replicates 2.0, Standard deviation 0.8803106038412188 %",-2.64%
same,inhibition,"PRVABC59, Concentration 99.01 uM, Number of replicates 2.0, Standard deviation 1.470636307117902 %",-1.92%
same,inhibition,"PRVABC59, Concentration 198.0 uM, Number of replicates 2.0, Standard deviation 2.500081737905502 %",-1.7%
Cc1cc(CO)c2cccc(C[C@H](NC(=O)c3cc(C(=O)O)[nH]n3)C(=O)O)c2n1,inhibition,"PRVABC59, Concentration 49.95 uM, Number of replicates 2.0, Standard deviation 1.6911148062176817 %",1.37%
same,inhibition,"PRVABC59, Concentration 99.9 uM, Number of replicates 2.0, Standard deviation 1.9620942703325182 %",8.92%
CCCC[C@@H](CC)CN(C[C@@H](CC)CCCC)C(=O)C1CCN(c2ccc(C=O)cc2)CC1,inhibition,[2],24.3%
CC(=O)N(C)C1CCN(C(=O)c2cc(Cl)ccc2NS(=O)(=O)c2ccc(Oc3ccccc3Cl)cc2)CC1,inhibition,[1],-3.52%
Cc1c(C(=O)N[C@@H](c2c[nH]nn2)C(C)C)ccc(O)c1NC(=O)c1ccncc1F,inhibition,"PRVABC59, Concentration 49.5 uM, Number of replicates 2.0, Standard deviation 1.0725908066283456 %",0.004%
same,inhibition,"PRVABC59, Concentration 99.01 uM, Number of replicates 2.0, Standard deviation 2.2280871616759246 %",0.286%
same,inhibition,"PRVABC59, Concentration 198.0 uM, Number of replicates 2.0, Standard deviation 3.5286682264571616 %",1.58%
CNC(=O)c1cc(Cl)ccc1NS(=O)(=O)Cc1cccc(C#N)c1,inhibition,"PRVABC59, Concentration 49.5 uM, Number of replicates 2.0, Standard deviation 0.7845443660673714 %",-4.96%
same,inhibition,"PRVABC59, Concentration 99.01 uM, Number of replicates 2.0, Standard deviation 0.817752710946075 %",-7.22%
Cc1cc(N)cc(CNC(=O)c2cccc(Cc3cccc4c(CO)cc(C)nc34)c2)c1,inhibition,"PRVABC59, Concentration 49.95 uM, Number of replicates 2.0, Standard deviation 0.660675115468642 %",22.4%
same,inhibition,"PRVABC59, Concentration 99.9 uM, Number of replicates 2.0, Standard deviation 1.0067445744655332 %",46.9%
COc1cc(F)ccc1CNC(=O)C1CCN(c2ccc(C=O)cc2)CC1,inhibition,[3],6.71%
CCC(=O)Nc1ccc(S(=O)(=O)Nc2ccc(Cl)cc2C(=O)NC)cc1,inhibition,"PRVABC59, Concentration 49.5 uM, Number of replicates 2.0, Standard deviation 3.9651835158061277 %",-1.04%
same,inhibition,"PRVABC59, Concentration 99.01 uM, Number of replicates 2.0, Standard deviation 6.374730224823037 %",1.28%
same,inhibition,"PRVABC59, Concentration 198.0 uM, Number of replicates 2.0, Standard deviation 2.8851147202870395 %",2.52%
Cc1cc(CO)c2cccc(NC(=O)c3ccc(N)nn3)c2n1,inhibition,"PRVABC59, Concentration 49.95 uM, Number of replicates 2.0, Standard deviation 1.640933261630777 %",3.67%
same,inhibition,"PRVABC59, Concentration 99.9 uM, Number of replicates 2.0, Standard deviation 25.978935740254965 %",-1.08%
Nc1ccc(Cl)c2ncccc12,inhibition,"PRVABC59, Concentration 49.95 uM, Number of replicates 2.0, Standard deviation 10.856665376334321 %",2.86%
same,inhibition,"PRVABC59, Concentration 99.9 uM, Number of replicates 2.0, Standard deviation 9.901328830284072 %",10.8%
O=Cc1ccc(N2CCC(C(=O)NCCc3ccc(C(F)(F)F)cc3)CC2)cc1,inhibition,[2],25.7%
O=Cc1ccc(N2CCC(C(=O)N(CC3CC3)C3CCCCC3)CC2)cc1,inhibition,[2],25.3%
CN(Cc1c(Cl)cccc1Cl)C(=O)C1CCN(c2ccc(C=O)cc2)CC1,inhibition,[2],21.3%
Cc1cc(Br)ccc1CNC(=O)c1cc(Cl)ccc1NS(=O)(=O)c1ccc(Oc2ccccc2Cl)cc1,inhibition,[1],27.2%
COc1cc(COCc2c(F)cccc2F)nc(N2CCNCC2)n1,inhibition,"PRVABC59, Concentration 49.5 uM, Number of replicates 2.0, Standard deviation 4.014215726370852 %",1.34%
same,inhibition,"PRVABC59, Concentration 99.01 uM, Number of replicates 2.0, Standard deviation 1.3567137127677436 %",0.451%
same,inhibition,"PRVABC59, Concentration 198.0 uM, Number of replicates 2.0, Standard deviation 2.4648693367218852 %",2.97%
O=C(c1cc(Cl)ccc1NS(=O)(=O)c1ccc(Oc2ccccc2Cl)cc1)N1CCC[C@H](c2nnc3ccccn23)C1,inhibition,[1],4.59%
O=Cc1ccc(N2CCC(C(=O)NCc3ccc(Cl)cc3F)CC2)cc1,inhibition,[3],5.67%
CCn1ccnc(N[C@@H](Cc2c[nH]c3ccccc23)C(=O)NCc2ccccc2)c1=O,inhibition,"PRVABC59, Concentration 49.5 uM, Number of replicates 2.0, Standard deviation 0.0 %",1.29%
same,inhibition,"PRVABC59, Concentration 99.01 uM, Number of replicates 2.0, Standard deviation 0.05654589783615587 %",4.52%
same,inhibition,"PRVABC59, Concentration 198.0 uM, Number of replicates 2.0, Standard deviation 0.6421999601301945 %",9.85%
COc1ccc(S(=O)(=O)N[C@H]2CC[C@@H](C(=O)Nc3nc4ccccc4s3)CC2)cc1,inhibition,"PRVABC59, Concentration 49.5 uM, Number of replicates 2.0, Standard deviation 1.7845592689374732 %",0.239%
same,inhibition,"PRVABC59, Concentration 99.01 uM, Number of replicates 2.0, Standard deviation 0.4054009263448292 %",2.41%
same,inhibition,"PRVABC59, Concentration 198.0 uM, Number of replicates 2.0, Standard deviation 0.6498339345072758 %",3.56%
COc1cc(CS(=O)(=O)C[C@H]2CCCO2)nc(N2CCNCC2)n1,inhibition,"PRVABC59, Concentration 49.5 uM, Number of replicates 2.0, Standard deviation 1.8368765734625312 %",2.34%
same,inhibition,"PRVABC59, Concentration 99.01 uM, Number of replicates 2.0, Standard deviation 1.5078449779761687 %",3.44%
same,inhibition,"PRVABC59, Concentration 198.0 uM, Number of replicates 2.0, Standard deviation 2.492348660482503 %",5.1%
COc1ccc(S(=O)(=O)Nc2ccc(C(=O)O)cc2)cc1,inhibition,"PRVABC59, Concentration 49.5 uM, Number of replicates 2.0, Standard deviation 1.0137935505852833 %",2.03%
same,inhibition,"PRVABC59, Concentration 99.01 uM, Number of replicates 2.0, Standard deviation 1.063246976754026 %",4.7%
same,inhibition,"PRVABC59, Concentration 198.0 uM, Number of replicates 2.0, Standard deviation 1.989546367228998 %",3.61%
CCC(CC)N1CCN(C(=O)C2CCN(c3ccc(C=O)cc3)CC2)CC1,inhibition,[2],15.9%
CCCOc1cccc(CCNC(=O)C2CCN(c3ccc(C=O)cc3)CC2)c1,inhibition,[2],15.3%
C[C@H]1CN(C(=O)c2cc(Cl)ccc2NS(=O)(=O)c2ccc(Oc3ccccc3Cl)cc2)CCN1C(=O)OC(C)(C)C,inhibition,[1],11.1%
COc1ncc(Br)cc1NC(=O)C1CCN(c2ccc(C=O)cc2)CC1,inhibition,[2],20.2%
COC(=O)c1cncc(NC(=O)c2cc(OC)nc(N3CCNCC3)n2)c1,inhibition,"PRVABC59, Concentration 49.5 uM, Number of replicates 2.0, Standard deviation 3.1296386813485726 %",-5.04%
same,inhibition,"PRVABC59, Concentration 99.01 uM, Number of replicates 2.0, Standard deviation 2.0436234712667796 %",-3.72%
same,inhibition,"PRVABC59, Concentration 198.0 uM, Number of replicates 2.0, Standard deviation 1.6779911310650717 %",0.151%
CC(C)[C@H](NC(=O)C1CCN(c2ccc(C=O)cc2)CC1)c1ccccn1,inhibition,[3],23.4%
CC(C)n1cnnc1CCNC(=O)C1CCN(c2ccc(C=O)cc2)CC1,inhibition,[2],21.2%
C[C@@H](Cc1ccc(C(F)(F)F)cc1)NC(=O)c1cc(Cl)ccc1NS(=O)(=O)c1ccc(Oc2ccccc2Cl)cc1,inhibition,[1],26.2%
O=C(Nc1c(F)cc(F)cc1Cl)c1cc(Cl)ccc1NS(=O)(=O)c1ccc(Oc2ccccc2Cl)cc1,inhibition,[1],23.7%
